The whole screen tested about 310,000 compounds, of which about 14,000 (4.5%) showed an effect of 50% or more. The effect is printed as a negative number. The list shows a part of the results.
Each molecule was assayed against human ether-à-go-go-related gene (hERG) potassium channel (human, UniProt Q12809) (assay: primary screen, population patch clamp on CHO cells stably expressing hERG).
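Also: peak tail current of the secondary pulse compared with the same well before compound.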

Chain of human ether-à-go-go-related gene (hERG) potassium channel (Q12809 whole entry, looked up): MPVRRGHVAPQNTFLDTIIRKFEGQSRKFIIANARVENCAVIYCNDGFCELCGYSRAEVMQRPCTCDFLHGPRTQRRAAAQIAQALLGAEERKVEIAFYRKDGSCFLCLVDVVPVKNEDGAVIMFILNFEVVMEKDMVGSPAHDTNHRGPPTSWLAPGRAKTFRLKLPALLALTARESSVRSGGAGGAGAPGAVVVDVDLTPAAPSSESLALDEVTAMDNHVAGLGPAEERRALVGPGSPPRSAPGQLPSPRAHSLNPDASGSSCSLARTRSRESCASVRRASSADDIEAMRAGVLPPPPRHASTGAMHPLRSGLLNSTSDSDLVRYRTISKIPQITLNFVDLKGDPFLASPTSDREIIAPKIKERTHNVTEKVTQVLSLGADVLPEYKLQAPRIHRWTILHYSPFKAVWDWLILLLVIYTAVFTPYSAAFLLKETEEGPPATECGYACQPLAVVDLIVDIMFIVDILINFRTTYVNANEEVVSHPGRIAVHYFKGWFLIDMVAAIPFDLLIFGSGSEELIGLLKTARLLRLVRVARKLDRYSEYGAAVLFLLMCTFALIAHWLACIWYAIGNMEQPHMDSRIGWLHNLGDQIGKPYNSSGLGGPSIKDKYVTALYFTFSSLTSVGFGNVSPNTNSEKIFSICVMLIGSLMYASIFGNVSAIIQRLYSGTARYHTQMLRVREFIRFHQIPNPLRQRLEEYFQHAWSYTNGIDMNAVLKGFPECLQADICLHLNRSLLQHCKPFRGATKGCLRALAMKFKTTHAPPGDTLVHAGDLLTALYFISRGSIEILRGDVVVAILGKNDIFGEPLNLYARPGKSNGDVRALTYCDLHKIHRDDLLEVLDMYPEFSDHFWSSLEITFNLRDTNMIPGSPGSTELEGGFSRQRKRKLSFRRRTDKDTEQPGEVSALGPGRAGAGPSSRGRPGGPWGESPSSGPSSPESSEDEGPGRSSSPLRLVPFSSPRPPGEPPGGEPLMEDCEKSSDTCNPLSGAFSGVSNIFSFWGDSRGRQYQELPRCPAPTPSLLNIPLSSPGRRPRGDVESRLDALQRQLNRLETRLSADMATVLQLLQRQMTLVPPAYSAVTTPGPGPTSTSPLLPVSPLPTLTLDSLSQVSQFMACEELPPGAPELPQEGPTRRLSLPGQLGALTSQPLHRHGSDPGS

| Compound | hERG current change (%, negative = inhibition) at 10uM [%] |
| --- | --- |
| Cc1c(Cl)cccc1N1C(=O)NC(=O)/C(=C\c2cc(C)n(-c3cccc(C(=O)O)c3C)c2C)C1=O | -11.8 |
| O=[N+]([O-])c1ccc(CN2CCCCCC2)s1 | -1.71 |
| Cc1nn(C)c(C)c1CN(C)C(=O)C1c2ccccc2Oc2ccccc21 | -8.4 |
| COc1ccc(N2CC(C(=O)NC3CCSC3=O)CC2=O)cc1 (stereo not drawn) | 23.1 |
| COc1cccc(C(=O)Nc2ccccc2N2CCCC2)c1 | -5.43 |
| C=C(C)c1cccc(C(C)(C)NC(=O)Nc2ncccn2)c1 | -15.3 |
| Cc1cc(/C=N/NC(N)=S)c(C)n1-c1ccc(Cl)c(Cl)c1 | -4.28 |
| Cc1ccc(O)c(-c2cc(-c3cccc(Br)c3)n[nH]2)c1 | 5.03 |
| CN(C)c1ccc(/C=[N+](\[O-])C2SC(=S)N(C)C2(C)C)cc1 (stereo not drawn) | 0.163 |
| Cn1c(=O)c(C(=O)CCl)c(N)n(Cc2ccccc2)c1=O | -0.976 |
| COc1ccc(CCC(C)Nc2ccc(F)cc2)cc1 (stereo not drawn) | -3.78 |
| CCCN(CC(=O)Nc1ccccc1C)C(=O)c1ccc(N2CCCC2)c([N+](=O)[O-])c1 | -41.3 |
| Cn1c(=O)[nH]c(=O)c2c1nc(Br)n2CCOc1ccccc1 | -3.7 |
| O=C(Cc1cccs1)N1CCCC(c2nc3c(nnn3Cc3ccc(F)cc3)c(=O)[nH]2)C1 (stereo not drawn) | -35.1 |
| Cc1ccc(-n2nnnc2SCC(=O)N(CC(C)C)c2c(N)n(CC(C)C)c(=O)[nH]c2=O)cc1 | 1.14 |
| CC1CCCCN1C(=O)CN1C(=O)CN(C)C(=O)c2ccccc21 (stereo not drawn) | 1.26 |
| CC(NCCC(Cc1ccccc1)c1ccco1)c1ccccc1 (stereo not drawn) | -22 |
| CCOC(=O)c1ccc(-n2c(CCC(=O)O)ccc2-c2ccc(F)cc2)cc1 | 0.749 |
| O=C(/C=C/c1ccc2c(c1)OCO2)Nc1cccnc1 | -66.4 |
| C/C(N)=C(/C#N)C(=O)COC(=O)c1cccc(O)c1 | -2.77 |
| NC(=O)CCN1CCCCC1 | -13.9 |
| CC(=O)Nc1ccc(S(=O)(=O)Nc2nc3ccccc3nc2Nc2ccccc2)cc1 | 10.3 |
| Cc1nn(Cc2ccccc2)c(N)c1-c1ccccc1 | -9.15 |

| Compound | hERG current change (%, negative = inhibition) at 10uM [%] |
| --- | --- |
| COc1ccccc1C(=O)Nc1ccc(S(=O)(=O)N2CCC(C)CC2)cc1 | 6.98 |
| CC(C)Cc1nc(N2CCN(C(=O)c3ccccc3)CC2)c(C#N)c2c1CCC2 | -24.1 |
| CC(=O)c1cccc(-n2nnnc2SCC(=O)Nc2cccc(NC(=O)c3ccco3)c2)c1 | -60.7 |
| CC(C)CC(C(=O)Nc1oc(-c2ccco2)c(-c2ccco2)c1C#N)N1C(=O)c2ccccc2C1=O (stereo not drawn) | 5.81 |
| Nn1cc(-c2ccccc2)nc1SCC(=O)Nc1ccc(S(N)(=O)=O)cc1 | -6.29 |
| CS(=O)(=O)Cc1cccc(C(=O)NN(c2ccccc2)c2ccccc2)c1 | 4.18 |
| Cc1cc(NC(=O)CCC(=O)N(CC(=O)NC2CCCC2)c2ccc(C(C)C)cc2)no1 | -6.14 |
| c1ccc(-c2cn3nc(-c4ccccc4)sc3n2)cc1 | -6.66 |
| O=C(NCC(=O)c1ccccc1)OCc1ccc([N+](=O)[O-])cc1 | -18.6 |
| N#C/C(N=Nc1ccccc1O)=N\Nc1ccccc1O | 15.9 |
| COc1cc(OC)c(-c2nnc(-c3ccc(OC)c(OC)c3OC)o2)cc1OC | 1.26 |
| CCC(=O)Nc1ccc2c(c1)ncn2-c1ccccc1C | 22.2 |
| O=C(COC(=O)CNC(=O)c1ccc(Cl)cc1Cl)Nc1ccc(N2CCOCC2)cc1 | 12.3 |
| COc1ccc(C2c3c(ncn(CCCN4CCOCC4)c3=N)Oc3ccc4ccccc4c32)cc1OC (stereo not drawn) | -51.3 |
| COc1cc(C(=O)NCCC(=O)NC2CCC(C)CC2)cc(OC)c1OC (stereo not drawn) | 26.1 |
| CC(Cc1ccco1)NC(=O)c1ccc(C(F)(F)F)cc1 (stereo not drawn) | 17.8 |
| CNC(=O)CSc1nc2[nH]ncc2c(=O)[nH]1 | 10 |
| Cc1cc(C)nc(SCC(=O)NC2CCCC2)n1 | -3.16 |
| O=C(CCCc1nc(-c2ccc(Cl)cc2)no1)NCC1CCCO1 (stereo not drawn) | -7.24 |
| CN1CCCC1CCNS(=O)(=O)c1ccc(Br)cc1 (stereo not drawn) | -28.6 |
| Cc1c(Cl)cccc1NC(=O)NCCCN1CCCC1=O | 3.76 |
| [Br-].c1ccc(N2CC[N+]3(CCCC3)CC2)nc1 | -5.05 |
| O=C(NC(Cc1ccccc1)C(=O)O)/C(=C\c1ccc(F)cc1)NC(=O)c1ccccc1 (stereo not drawn) | 11.1 |

| Compound | hERG current change (%, negative = inhibition) at 10uM [%] |
| --- | --- |
| COc1ccc(N=Cc2c(O)c3ccccc3n2C(C)=O)cc1 | -0.828 |
| O=C(C1=C(O)C(=O)N(c2nccs2)C1c1ccccc1)c1cc2ccccc2o1 (stereo not drawn) | 19.7 |
| Cc1cc(-c2cc(-c3ccccc3)on2)nc(NC2CCCC2)n1 | 15.7 |
| O=C(CC(NC(=O)c1ccccc1Cl)c1ccccc1)NCCc1ccc(Cl)cc1 (stereo not drawn) | 6.33 |
| CC(=O)c1ccc(C(=O)N2CCc3c([nH]c4ccccc34)C2c2ccccn2)s1 (stereo not drawn) | 6.12 |
| O=c1[nH]c(O)c(/C=C2\C=NN=C2c2ccccc2)c(=O)[nH]1 | 6.54 |
| COc1cc(N(C)C)c([N+](=O)[O-])cc1C(=O)NC(C)CNc1ccc([N+](=O)[O-])cc1Cl (stereo not drawn) | -2.36 |
| COc1ccc(NC(=O)C(=O)NCC2CCCN2S(=O)(=O)c2ccc(C)cc2)cc1 (stereo not drawn) | -24.7 |
| COc1cccc(CN(C)C(=O)c2cccc(OC3CCN(C4CCCC4)CC3)c2)c1 | -55.1 |
| Cc1ccc(NC(=O)CN(C)CCOc2ccccc2)c([N+](=O)[O-])c1 | 10.2 |
| C/C=C(\C)C(=O)NCCN1C2=NC[C@H](Cc3ccccc3)N2C[C@H]1Cc1ccc(O)cc1 | 1.99 |
| CCCC(=O)Nc1nnc(SCC(=O)NC2CC2)s1 | 11.4 |
| CC(C)C12CN3CCN(CC(C3)C1O)C2 (stereo not drawn) | -1.29 |
| Cc1onc(-c2ccccc2)c1C(=O)N1CCOCC1 | 7.71 |
| CC1CCN(CCCNC(=O)c2cc3sccc3n2C)CC1 | -57.3 |
| C=CCN(c1ccc(C(=O)NCCSc2ccccc2)cc1)S(C)(=O)=O | -1.01 |
| COc1cccc(/C=C/C(=O)Nc2ccc(OC)nc2)c1 | -26.1 |
| Cc1cccc(-n2cc(CNCCc3nc(C)cc(C)n3)c(-c3cccc(F)c3)n2)c1 | -67.9 |
| O=C(CCC(=O)N1CCSc2ccccc21)NCc1cccc(Br)c1 | -17.9 |
| COc1cc(NC(=O)CCN2CCN(CCO)CC2)cc(OC)c1 | 9.89 |
| CN(C)/C=C1/OC(=O)C(C#N)=C1c1ccc(Cl)cc1 | 2.54 |
| Cc1ccsc1CNCCc1ccc(F)cc1 | -14.8 |
| COc1ccc(CN2CCNC(=O)C2CC(=O)NCc2cn[nH]c2-c2ccccc2)c(F)c1 (stereo not drawn) | -1.07 |

| Compound | hERG current change (%, negative = inhibition) at 10uM [%] |
| --- | --- |
| COc1ccccc1NC(=O)c1cnc(SCC(=O)NCC2CCCO2)n(C)c1=O (stereo not drawn) | -6.13 |
| Cc1occc1C(=O)NCc1cccs1 | -21.2 |
| Cn1nccc1NC(=O)c1nccnc1C(=O)O | 4.4 |
| CC(C)n1ncc2c(C(=O)Nc3ccc(CC#N)cc3)cc(C3CC3)nc21 | 17.3 |
| COc1cc(/C=N/NC(=O)CCn2nnc3ccccc32)ccc1O | 20.4 |
| CSc1ncccc1C(=O)NC1CCN(Cc2ccccc2)CC1 | -14.5 |
| CCCCOc1ccc(C(=O)NCC(=O)OC2CCOC2=O)cc1 (stereo not drawn) | 4.84 |
| CCOC(=O)c1c(NC(=O)CN2C(=O)NC3(CCCC3)C2=O)sc(C)c1CC | -4.59 |
| COC(=O)c1ccc2nc(-c3ccc(S(C)(=O)=O)cc3)cn2c1 | -29.2 |
| COCCNC(=S)NC(=O)c1ccc(C(C)(C)C)cc1 | -29.7 |
| Nc1c(O)ccc2c1C(=O)c1ccccc1C2=O | 22.3 |
| Nn1c(COc2ccc(Cl)cc2)n[nH]c1=S | 4.74 |
| CN(Cc1cccnc1)Cc1cn[nH]c1-c1ccc(-c2ccccc2)cc1 | -56.7 |
| COC(=O)C1CSC(C(=O)OC)N1C(=O)Nc1ccc(Cl)cc1 (stereo not drawn) | 2.1 |
| Cc1ccccc1OCC(=O)N(Cc1ccc(N(C)C)cc1)C1CCS(=O)(=O)C1 (stereo not drawn) | -14.2 |
| COc1ccc(C2=NN(S(=O)(=O)c3ccccc3)C(c3ccccc3)C2)cc1 (stereo not drawn) | 25.3 |
| CCOC(=O)c1cc2c(C(F)(F)F)cc(-c3cccnc3)nc2o1 | 10.2 |
| Cc1sc2nc(SCC(=O)N3CCOCC3)[nH]c(=O)c2c1-c1ccccc1 | -4.3 |
| S=c1[nH]cc(-c2ccc(Cl)cc2)n1Cc1ccccc1 | 23.6 |
| COc1ccc(C(N)=S)cc1 | 6.41 |
| O=C1N(c2cccc(Cl)c2)C(c2ccccc2)N2CCCN12 (stereo not drawn) | -7.49 |
